Measured values as given in patent US20220098328A1, “ANTIBODIES TO M(H)DM2/4 AND THEIR USE IN DIAGNOSING AND TREATING CANCER” (NomoCan Pharmaceuticals LLC, priority 2017, published 2022).
Certain results were filed several times, with different values. Only these are listed. An entry can have further records. Results that share an entry appear to be repeats on other runs, samples or individuals. A tag in brackets gives the origin of a value. Letters hold for one entry only.

Tested on: mouse Lewis Lung LL/2 cells
Assay: Cell-ELISA on intact cells
Assay type: cell-based
Conditions: intact un-permeabilized mouse LL/2 cancer cells; antibody 5 μg/mL
Procedure: Cell-ELISA Methodology: 8,000-10,000 cells/well of a 96-well microplate were grown overnight. The next day, unbound cells were washed off with sterile 1×PBS. The cells in each well were fixed with freshly prepared 4% buffered paraformaldehyde (pH 7.2) for 1 hour followed by 3 washes with 1×PBS. The wells were then blocked with 5% BSA in PBS (100 μl/well) for 2 hours at room temperature. Microplate wells were then washed 5 times with 300 μl of ice cold 1×PBS. MAbs NMC-103, NMC-204 or NMC-303 at 1 μg/mL in 1% BSA/PBS were then incubated with various cancer or normal untransformed cells for 2 hours at room temperature. […] The reaction was stopped by addition of 50 μL of stop solution (ThermoFisher, Cat. No. SS04) to each well and absorbance of each well was measured at OD450 nm. The absorbance value of each experimental well was corrected for the absorbance value obtained from wells treated with isotype-identical mAbs included in each experiment. The results are thus expressed as “relative binding”.
In a 96-well microplate, 15,000 cells/well were cultured overnight. […] The reaction was stopped by addition of 50 μL of stop solution (ThermoFisher, Cat. No. SS04) to each well and absorbance of each well was measured at OD450 nm. The absorbance value of each experimental well was corrected for the absorbance value obtained from wells treated with isotype-identical mAbs included in each experiment.

B1: NMC-H103 (VH4/VK3): humanized NMC-103 variant, human IgG1, VH4 (SEQ ID NO:299) and VK3 (SEQ ID NO:297) (antibody, V domains shown)
VH: EVQLVESGGGLVQPGPSLRLSCTTSGFTFTHYYMSWVRQAPGKGLEWLGFIRNKAKGYTAEYSASVKGRFTISRDNSKSTLYLQMNSLRAEDTAVYYCARDIGDNWGQGTLVTVSS
VL: DIVMTQTPLSSPVTLGQPASISCRSSKNLLHSNGITYLYWYLQKPGQSPQLLISRVSNLASGVPDRFSGSESGTDFTLKISRVEAEDVGVYFCAQLLELPYTFGGGTKVEIK
modifications: human IgG1 constant regions lacking entries; mAb NMC-H103.VH4Heavy Chain Variable Region; mAb NMC-H103.VK3Light Chain Variable Region
In the case of B1, the “average OD reading, cell-based ELISA binding to intact cells” value is reported as 3.51 OD450 (absorbance, unitless) [passage A] and 3.48 OD450 (absorbance, unitless) [passage B].
